# Values joined by “and” are separate entries in the source; they are usually repeats but may differ in a detail not shown here. Identical values can stand only once. Some of the results follow. These are further read-outs of the screen, such as a control signal, another cell line or another target. No call is given for them.
# Columns and labels:
# Experiment in all cases: Primary Screen for Target Class Profiling of Small Molecule Inhibitors of Methyltransferases
# [1] = biological target: Glycine N-methyltransferase (Homo sapiens) (UniProt Q14749); settings: purified enzyme, MTase-Glo SAH luminescence; measured here: GNMT inhibition; at 40 µM; stronger effect = lower value
# How it was run: (§1)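 Each enzyme was assayed with SAM and its substrate. SAH formation detected by MTase-Glo luminescence; single-point 40 uM screen[…].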
# [2] = biological target: Guanidinoacetate N-methyltransferase (Homo sapiens) (UniProt Q14353); settings: purified enzyme, MTase-Glo SAH luminescence; measured here: GAMT inhibition; at 40 µM; stronger effect = lower value
# How it was run: as §1
# [3] = biological target: Histamine N-methyltransferase (Homo sapiens) (UniProt P50135); settings: purified enzyme, MTase-Glo SAH luminescence; measured here: HNMT inhibition; at 40 µM; stronger effect = lower value
# How it was run: as §1
# [4] = biological target: Nicotinamide N-methyltransferase (Homo sapiens) (UniProt P40261); settings: purified enzyme, MTase-Glo SAH luminescence; measured here: NNMT inhibition; at 40 µM; stronger effect = lower value
# How it was run: as §1
# [5] = biological target: Phenylethanolamine N-methyltransferase (Homo sapiens) (UniProt P11086); settings: purified enzyme, MTase-Glo SAH luminescence; measured here: PNMT inhibition; at 40 µM; stronger effect = lower value
# How it was run: as §1
# On the % scale 0 is the no-effect control and ±100 the full control effect.
Compound,"activity change, negative = inhibition [1]","activity change, negative = inhibition [2]","activity change, negative = inhibition [3]","activity change, negative = inhibition [4]","activity change, negative = inhibition [5]"
CN(CC(=O)Nc1ccc(F)cc1F)S(=O)(=O)c1ccc2[nH]c3c(c2c1)CCCC3,-4.54%,0.662%,-1.38%,-4.51%,-0.498%
CC(=O)CCCCn1c(=O)c2c(ncn2C)n(C)c1=O,-2.34% and -3.84%,-2.95% and 3.46%,11.9% and -0.293%,-8.12% and -7.17%,5.22% and 2.85%
C=Cc1ccc(CSc2nnc3n(CCC)c(=O)c4cc(F)ccc4n23)cc1,-4.76%,4.55%,10.7%,-7.87%,4.37%
CC(C)OCCCn1c(=O)c2cc(Cl)ccc2n2c(SCc3ccccc3)nnc12,-4.21%,0%,3.8%,-6.97%,3.05%
CCOc1ccccc1CN1C(=O)c2cc3sccc3n2CC1(C)C(=O)NC1CCCCC1 (stereo not given),4.84%,0%,5.84%,8.49%,4.17%
COc1cccc(CCC(=O)N[C@@H]2CN(c3ncccn3)C[C@H]2CO)c1,-1.24%,-4.01%,-0.081%,-17.2%,11%
COc1ccc(C(=O)N2CCCC(c3nc(-c4ccccc4)no3)CCNC(=O)CC2)cn1 (stereo not given),-3.96%,-2.92%,1.21%,-13.8%,-2.77%
CCCNC(=O)C(CC)n1ccc2cc(S(=O)(=O)N3CCCCC3)ccc21 (stereo not given),3.37%,5.29%,-2.55%,5.6%,2.06%
O[C@@H]1C[C@@H](c2nnc3n2CCN(C2CCCCC2)C3)N(Cc2cccnc2)C1,-1.56%,0.44%,2.43%,-5.1%,-2.04%
CN(C)c1ccc(C(=O)NC[C@H]2O[C@@H](CO)[C@@H](O)[C@H]2N(C)Cc2ccccc2)cc1,-1.9%,-2.9%,-0.567%,-5.89%,-0.57%
O=C(Cn1nc2n(CCc3ccccc3)c(=O)c3ccccc3n2c1=O)NCc1ccc(Cl)cc1,3.52%,3.04%,8.18%,0.416%,1.86%
COc1cccc(CSc2nnc3n(Cc4ccc(F)cc4)c(=O)c4ccccc4n23)c1,2.59%,0%,5.79%,-5.17%,-0.264%
CC(=O)Nc1c2n(c3ccccc13)CC(C)(C(=O)NCCC(C)C)N(Cc1ccccc1F)C2=O (stereo not given),1.69%,6.72%,0.081%,2.43%,1.49%
CCCN1C(=O)c2cc(C(=O)NCc3ccc4c(c3)OCO4)nn2CC1(C)C(=O)NC1CCCC1 (stereo not given),1.73%,2.24%,2.2%,1.44%,1.13%
CC(C)CCNC(=O)C1(C)Cn2nc(C(C)(C)C)cc2C(=O)N1Cc1ccccc1Cl (stereo not given),-2.02%,3.36%,-2.53%,-4.72%,-4.08%
CCOc1ccc(C2Cn3nnc(-c4nc(-c5ccccc5OC)no4)c3CO2)cc1 (stereo not given),-3.75%,-5.19%,-2.7%,-7.05%,-0.261%
COc1cccc(CNC(=O)c2c(C)noc2-c2ccccc2OC)c1,-2.31%,-4.08%,-0.273%,-4.53%,0.239%
CC(O)CN1CC2(CCC1=O)CCN(C(=O)c1ccnn1C)CC2 (stereo not given),-2.79%,-3.72%,0.622%,-4.93%,-19.9%
COc1ccc(CCNC(=O)c2ccc3c(=O)[nH]c4c(C(=O)NC5CCCC5)sc(=S)n4c3c2)cc1OC,-48.5%,3.45%,-0.358%,-38.5%,-14.8%

Compound,"activity change, negative = inhibition [1]","activity change, negative = inhibition [2]","activity change, negative = inhibition [3]","activity change, negative = inhibition [4]","activity change, negative = inhibition [5]"
Cc1ncsc1C(=O)N1CCCC(C)(Cc2ccc3c(c2)OCO3)C1 (stereo not given),-3.56%,-1.23%,0.614%,-12.1%,12.3%
COc1ccc(CN2CCOc3nc(-c4cccc(C(F)(F)F)c4)ncc3C2=O)cc1,-5.86%,-6.42%,-2.46%,-3.15%,-9.63%
O=C1CN(Cc2ccc(Cl)cc2)S(=O)(=O)c2ccccc2N1Cc1cccc(F)c1,12.9%,0%,9.29%,8.43%,7.28%
CCc1c(C(=O)N2CCc3c(c(C(=O)O)nn3CC3CC3)C2)csc1C,-11%,-1.75%,-1.4%,-2.89%,0.332%
C[C@@H]1CC[C@]2(C(=O)OC3OC(CO)C(O)C(O)C3O)CC[C@]3(C)C(=CCC4[C@@]5(C)CC[C@H](O)[C@](C)(C(=O)O)C5CC[C@]43C)C2[C@]1(C)O (stereo not given in full),4.66%,1.6%,9.23%,-10.3%,0.65%
COCCOC1CCN(C(=O)Nc2cccc(C)c2)CC1,-3.93%,-5.18%,-0.892%,-5.79%,-2.98%
C=C1CCN([C@H](C)[C@](O)(Cn2cncn2)c2ccc(F)cc2F)CC1,-0.205%,4.75%,8.22%,-13.3%,1.46%
CCOC(=O)c1cc2n(n1)CC(C)(C(=O)NC1CCCC1)N(c1ccc(CC)cc1)C2=O (stereo not given),-1.69%,0.907%,-1.39%,-1.24%,-1.41%
CCc1cc2c(cc3n2CC(C(=O)NC2CCCCC2)(c2ccccc2)N(Cc2ccc(Cl)cc2)C3=O)s1 (stereo not given),-0.769%,2.59%,5.05%,0.873%,-2%
Cc1cc(C)cc(N2C(=O)c3cc4sccc4n3CC2(C)C(=O)NC2CCC(C)CC2)c1 (stereo not given),-6.56%,4.06%,-6.28%,0.135%,-6.13%
CCCC(=O)C1CCN(c2ncnc3c2CN(C(=O)c2ccc(-c4ccccc4)cc2)CC3)CC1,-16.9%,6%,6.05%,-39.5%,0.256%
COCCn1nc2n(c1=O)CCC1(CC2)CCN(C(=O)CC(C)(C)C)CC1,-2.13%,-0.181%,-1.9%,-0.704%,-1.17%
CCN1C(=O)c2c(C(=O)NCCc3ccco3)ncn2CC1(C)C(=O)NC1CCCC1 (stereo not given),-5.86%,4.58%,3.49%,5.13%,3.98%
CCCn1c(=O)c2ccc(Cl)cc2n2c(=O)n(CC(=O)Nc3ccc(Cl)cc3)nc12,-0.88%,1.32%,-0.635%,-7.26%,-2.34%
O=C(O)c1cc(O)c2cccc(O)c2c1O[C@@H]1O[C@H](CO)[C@@H](O)[C@H](O)[C@H]1O,-31%,-14%,4.09%,-24.3%,-33.4%
Cc1ccc(Cl)cc1NC(=O)Cn1nc2n(Cc3ccc(F)cc3)c(=O)c3ccccc3n2c1=O,1.59%,0%,7.86%,-2.93%,0.722%
COc1ccc(CNC(=O)N2CCCCC2c2nc(-c3cnccn3)n[nH]2)cc1 (stereo not given),-0.865%,-0.591%,-0.723%,-1.54%,-1.69%
COc1ccc(C(C)NC(=O)c2c(C)sc3ccn(C)c(=O)c23)cc1 (stereo not given),-3.82%,-0.663%,0.685%,1.98%,12.8%
N#CC(CCCN1CCN(/N=C/c2cccnc2)CC1)(c1ccccc1)c1ccccc1,6.73%,-1.42%,4.54%,-29.1%,-9.74%
